According to paper PMC5648805, “Calmodulin dissociates the STIM1-Orai1 complex and STIM1 oligomers” (Nature Communications, 2017):

What was measured:
[1] = biological target: the molecule itself; test: SEC-MALS; 100 μM protein on Superdex 200 10/300, 25 mM Tris-HCl pH 7.5, 200 mM NaCl, 0.5 ml/min
[2] = biological target: T1, Orai1-CFP (human, UniProt Q96D31 1-301); test: FRET or BRET; CFP-YFP index-based FRET, apparent FRET efficiency (Eapp), live HEK293T or HEK Orai1-CFP stable cells, room temperature; resting, after Ca2+ addition or after 1 μM thapsigargin as named; conditions: partners not purified
T1 construct: Orai1; the construct Orai1-CFP is not described in the methods; The electrophysiology used CFP-Orai1 and the Ca2+ imaging Cherry-Orai1; source: HEK cells stably expressing Orai1-CFP (gift), or HEK293T, transfected; in live cells; not shown: CFP, C-terminal, kept

Orai1-CFP, sequence (Q96D31 whole entry): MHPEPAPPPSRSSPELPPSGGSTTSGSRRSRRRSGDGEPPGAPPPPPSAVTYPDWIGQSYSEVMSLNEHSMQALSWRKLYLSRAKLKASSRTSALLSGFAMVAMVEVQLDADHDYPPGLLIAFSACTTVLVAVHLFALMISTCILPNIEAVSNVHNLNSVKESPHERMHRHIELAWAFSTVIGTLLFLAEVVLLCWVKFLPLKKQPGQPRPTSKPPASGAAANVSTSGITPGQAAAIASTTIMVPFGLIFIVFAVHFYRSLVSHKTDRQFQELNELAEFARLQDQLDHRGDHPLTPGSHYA

| fold increase of FRET Eapp after Ca2+ depletion from the ER [2] [fold] | Binder | stoichiometry N [1] |
| --- | --- | --- |
|  | SOAR L390S-F391S (LF-SS) mutant, recombinant (domain or fragment, SOAR domain of human STIM1 with L390S and F391S; also called SOAR–LF-SS; source: E. coli, purified (same protocol as SOAR WT); not shown: MBP, N-terminal, cleaved) not shown | 2 |
| ~2 | STIM1-YFP (natural protein, human, STIM1, human, full-length cDNA in pEYFP-C1 between BglII and EcoRI; 685 amino acids; In the STIM1-STIM1 FRET the second copy was STIM1-CFP; also called STIM1-WT; STIM1 WT; source: HEK293T, transfected, in lysate; not shown: YFP, C-terminal, kept) LSHSHSEKATGTSSGANSEESTAAEFCRIDKPLCHSEDEKLSFEAVRNIHKLMDDDANGDVDVEESDEFLREDLNYHDPTVKHSTFHGEDKLISVEDLWKAWKSSEVYNWTVDEVVQWLITYVELPQYEETFRKLQLSGHAMPRLAVTNTTMTGTVLKMTDRSHRQKLQLKALDTVLFGPPLLTRHNHLKDFMLVVSIVIGVGGCWFAYI[skipping about 450 residues]RKKFPLKIFKKPLKK |  |
